# Assay results: PubChem BioAssay AID1460 (National Center for Advancing Translational Sciences (NCATS), 2008)
# In all, about 270,000 compounds went through this assay and about 5,800 (2.1%) were called active. The shares of active, inactive and inconclusive entries below differ from those in the screen. The call rests on the fitted dose curve; in most records, active means well fitted inhibition curve with a large enough effect; inconclusive means small, poorly fitted or top-dose-only effect; inactive means flat fitted curve, though single readings scatter. Where the call is inconclusive, the potency comes from a doubtful curve fit.
# Target: Microtubule-associated protein tau (Homo sapiens) (UniProt P10636)
# Chain of UniProt P10636 (P10636 whole entry, looked up): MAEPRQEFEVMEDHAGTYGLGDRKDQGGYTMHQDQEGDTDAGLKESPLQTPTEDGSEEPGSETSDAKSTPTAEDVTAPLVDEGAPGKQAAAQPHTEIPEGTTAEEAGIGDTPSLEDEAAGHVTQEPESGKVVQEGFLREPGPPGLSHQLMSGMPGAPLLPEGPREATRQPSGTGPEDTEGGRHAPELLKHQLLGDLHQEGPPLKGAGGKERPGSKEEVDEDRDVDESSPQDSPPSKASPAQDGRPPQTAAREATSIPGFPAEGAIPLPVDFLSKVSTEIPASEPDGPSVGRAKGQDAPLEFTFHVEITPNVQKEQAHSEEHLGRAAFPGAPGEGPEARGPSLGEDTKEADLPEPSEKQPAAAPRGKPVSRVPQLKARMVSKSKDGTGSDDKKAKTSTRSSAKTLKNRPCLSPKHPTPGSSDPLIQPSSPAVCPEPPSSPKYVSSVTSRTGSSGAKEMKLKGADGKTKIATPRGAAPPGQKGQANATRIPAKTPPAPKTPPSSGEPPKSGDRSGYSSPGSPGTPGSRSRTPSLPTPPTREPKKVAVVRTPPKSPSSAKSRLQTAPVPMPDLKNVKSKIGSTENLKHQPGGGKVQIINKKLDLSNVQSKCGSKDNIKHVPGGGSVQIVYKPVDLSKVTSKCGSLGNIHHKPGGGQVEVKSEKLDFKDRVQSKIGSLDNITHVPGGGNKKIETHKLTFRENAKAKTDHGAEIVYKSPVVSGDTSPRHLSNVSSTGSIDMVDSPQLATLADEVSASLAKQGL
# Assay: qHTS for Inhibitors of Tau Fibril Formation, Thioflavin T Binding; further: nearly all actives have a fitted effect of over 55% in size
# Details: recombinant tau K18 P301L (four-repeat tau fragment), heparin-induced fibrillization, ThT fluorescence; series mostly up to 57.4 µM
# Outline: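 Tau K18 P301L fragment (15 uM unlabeled plus 0.24 uM Alexa 594-labeled) in 100 mM sodium acetate pH 7 with compound, fibrillization induced by 20 uM heparin for 6 hr at 37 C. Thioflavin T (30 uM) added, fluorescence read after 1 hr (ex 450, em 510 nm).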
# Potency means the concentration at half of the fitted maximal effect; tags describe the fitted curve by direction and shape.
row,Structure (SMILES),Potency
1,O=C(Nc1ccc2c(c1)CCC2)c1ccccc1F,"inconclusive: 4.47 µM [inhibitor, full curve]"
2,CC1CN(C(=O)C2CC2)C(C)CN1C(=O)C1CC1 (stereo unspecified),"inconclusive: 39.8 µM [inhibitor, single point]"
3,CCOc1ccc(C(=O)NCCc2sc(-c3cccc(F)c3)nc2C)cc1OCC,"inconclusive: 11.2 µM [inhibitor, partial curve]"
4,Cc1cc(=O)n(-c2ccc3ccccc3n2)[nH]1,"inconclusive: 12.6 µM [inhibitor, partial curve]"
5,Cc1ccc(S(=O)(=O)N(C)C)cc1NC(=O)CSc1ncc(C(F)(F)F)cc1Cl,inactive
6,Cc1cc(C)c(O)c(-c2n[nH]c3c2C(c2cccc(O)c2)N(Cc2ccco2)C3=O)c1 (stereo unspecified),"inconclusive: 39.8 µM [inhibitor, single point]"
7,CCOc1ccc(NC(=O)NCCCN2CCCC2)cc1,"inconclusive: 17.8 µM [inhibitor, partial curve]"
8,O=c1[nH]c2ccccc2nc1C(F)(F)C(F)F,inactive
9,Cc1cccc(OC(C)c2ccnc3nc(/N=C/N(C)C)nn23)c1 (stereo unspecified),inactive
10,O=C(Cc1ccccc1)Nc1cccc(N2CCCC2)c1,"inconclusive: 39.8 µM [inhibitor, single point]"
11,Cc1cnc(C(=O)N2CCCC(C(=O)c3ccc(C(F)(F)F)cc3)C2)cn1 (stereo unspecified),"inconclusive: 11.2 µM [inhibitor, partial curve]"
12,CCC(=O)c1ccc2ncccc2c1,inactive
13,Cc1ccc(NC(=O)Cn2nc(C(F)(F)F)c3c2CCC3)cc1C,inactive
14,CC(C)COc1ccc(C(=O)Nc2onc3c2CCCC3)cc1,"inconclusive: 25.1 µM [inhibitor, partial curve, poor fit]"
15,CCOc1ccc(CCNC(=O)CCn2c(=O)c3cccn3c3ccc(F)cc32)cc1,inactive
16,C/C(=N\NC(=S)Nc1cccc(C)c1)c1ccco1,inactive
17,CCN(CC)c1ccc(NC2=C(Cl)C(=O)c3ccccc3C2=O)cc1,active: 2.82 µM
18,CCOc1ccc2nc(SCC(=O)NC(=O)C(C)C)sc2c1,"inconclusive: 17.8 µM [inhibitor, partial curve]"
19,C=CCn1c(-c2ccc(S(=O)(=O)N3CCOCC3)cc2)csc1=Nc1ccccc1,"inconclusive: 28.2 µM [inhibitor, partial curve]"
20,NC(=O)C1CCN(c2ncnc3c2cnn3-c2cccc(Cl)c2)CC1,inactive
21,Cc1ccccc1-c1noc(CSc2nc(-c3ccc(F)cc3)cc(=O)[nH]2)n1,inactive
22,Cc1ccc(NC(=O)CCCc2ccccc2)nc1,inactive
23,O=C(Nc1ccc(OCc2cc(=O)n3c4c(sc3n2)CCCC4)cc1)c1ccc(F)cc1,"inconclusive: 0.631 µM [inhibitor, full curve]"
24,Brc1ccccc1OCCCN1CCOCC1,inactive

row,Structure (SMILES),Potency
1,O=C(/C=C/c1ccccc1)Nc1ccc(N2CCCCC2)cc1,"inconclusive: 1.78 µM [inhibitor, full curve]"
2,OC(C#CCN1CCCCC1)c1ccccc1 (stereo unspecified),inactive
3,O=[N+]([O-])c1ccc(N2CCN(Cc3ccccc3)CC2)nc1,"inconclusive: 11.2 µM [inhibitor, partial curve]"
4,COc1ccc2nc(NC(=O)CSc3nnc4n3C(C)(C)Cc3ccccc3-4)sc2c1,"inconclusive: 0.282 µM [inhibitor, full curve, poor fit]"
5,COc1cc(-c2[nH]nc3c2C(c2ccoc2)C(C#N)=C(N)O3)cc(OC)c1OC (stereo unspecified),"inconclusive: 14.1 µM [inhibitor, partial curve]"
6,Cc1cc([N+](=O)[O-])nn1CC(=O)N/N=C/c1ccccc1O,inactive
7,O=S(=O)(NCc1ccco1)c1ccc2c(c1)Cc1ccccc1-2,"inconclusive: 28.2 µM [inhibitor, single point]"
8,Cc1nc2ccccc2nc1SCC(=O)c1ccccc1,"inconclusive: 28.2 µM [inhibitor, partial curve]"
9,CC(=O)Nc1cccc(-c2nnc(SCC(=O)c3ccc([N+](=O)[O-])cc3)o2)c1,"inconclusive: 1.41 µM [inhibitor, full curve]"
10,Oc1ccc(/C=C/c2nc(-c3ccccc3O)n(-c3ccccc3)n2)cc1,"inconclusive: 39.8 µM [inhibitor, single point]"
11,COc1ccc(Cn2c(NCC(C)C)nc3c2c(=O)n(C)c(=O)n3C)cc1,"inconclusive: 0.891 µM [inhibitor, full curve, poor fit]"
12,O=C(/C=C/NNC(=O)c1ccccc1)c1ccccc1,"inconclusive: 20 µM [inhibitor, partial curve]"
13,O=[N+]([O-])c1ccc(NC(=S)NCc2ccncc2)cc1,inactive
14,O=C(CSc1nc(O)cc(=O)n1C1CCCC1)Nc1cccc(Cl)c1Cl,inactive
15,O=S(=O)(Nc1nc2ccccc2nc1N1CCc2ccccc2C1)c1ccc(Br)cc1,"inconclusive: 11.2 µM [inhibitor, partial curve]"
16,COC(=O)c1cccc(Nc2ncnc3ccc(C)cc23)c1,"inconclusive: 35.5 µM [inhibitor, partial curve]"
17,c1c2c(cc3sc(N4CCOCC4)nc13)OCCO2,"inconclusive: 20 µM [inhibitor, partial curve]"
18,Cc1ccc(/C=C2\Oc3c(ccc(O)c3CN3CCN(CCO)CC3)C2=O)cc1,"inconclusive: 22.4 µM [activator, single point]"
19,NC(=O)C1CCN(C2=C(NS(=O)(=O)c3ccccc3)C(=O)c3ccccc3C2=O)CC1,"inconclusive: 22.4 µM [inhibitor, partial curve]"
20,CCOC(=O)/C(C#N)=C1/C=Nc2ccccc2N1,"inconclusive: 15.8 µM [inhibitor, partial curve]"
21,Cc1cc(SCC(=O)c2ccccc2)n2ncc(-c3ccccc3)c2n1,"inconclusive: 2.24 µM [inhibitor, full curve, poor fit]"
22,Cc1ccccc1-c1noc(-c2ccc(NC3CCCC3)c([N+](=O)[O-])c2)n1,inactive
23,COc1ccc(-n2nc(C(=O)N3CCN(c4cccc(C)c4)C(C)C3)c3c4ccccc4n(C)c3c2=O)cc1Cl (stereo unspecified),inactive
24,O=C(Cn1ncc(Cl)c(Cl)c1=O)c1ccc(Cl)cc1,"inconclusive: 17.8 µM [inhibitor, partial curve]"

row,Structure (SMILES),Potency
1,CC(=O)Oc1ccc2c(=O)c(N3C(=O)c4ccccc4C3=O)c(C)oc2c1,"inconclusive: 31.6 µM [inhibitor, single point]"
2,COc1ccc(/C(O)=C2/C(=O)C(=O)N(CCN3CCOCC3)C2c2ccccn2)cc1 (stereo unspecified),"inconclusive: 25.1 µM [inhibitor, partial curve]"
3,COc1ccc(OC)c(CCNC(=O)CSc2ccsc2[N+](=O)[O-])c1,"inconclusive: 3.55 µM [inhibitor, partial curve, poor fit]"
4,COc1ccc(/C=N/NC(=O)c2cccc(OC(F)(F)C(F)F)c2)c(OC)c1OC,"inconclusive: 14.1 µM [inhibitor, single point]"
5,COc1ccc(C(=O)CC2(O)C(=O)N(CCc3ccccc3)c3ccc(Br)cc32)cc1OC (stereo unspecified),inactive
6,Cc1ccc(NC(=O)C2=C(O)c3sccc3N(C)S2(=O)=O)cc1,inactive
7,CC(=O)Nc1ccc(S(=O)(=O)NC2=C(N3CCN(c4ccc(F)cc4)CC3)C(=O)c3ccccc3C2=O)cc1,active: 5.62 µM
8,Nc1ccc2oc(-c3ccccc3Cl)nc2c1,"inconclusive: 8.91 µM [inhibitor, partial curve]"
9,Cc1nc(NC(=O)c2ccccc2)sc1-c1csc(N)n1,active: 12.6 µM
10,CCN(CC)S(=O)(=O)c1ccc2c(c1)c(=O)c(C(=O)N1CCN(c3cc(C)ccc3C)CC1)cn2C,"inconclusive: 31.6 µM [inhibitor, single point]"
11,COc1ccc(C2=CC(c3ccco3)n3ncnc3N2)cc1 (stereo unspecified),"inconclusive: 39.8 µM [activator, single point]"
12,COc1ccc(Cl)cc1NC(=O)c1[nH]nc(OC)c1[N+](=O)[O-],"inconclusive: 15.8 µM [inhibitor, partial curve]"
13,O=C(Cn1cc(SCc2ccc(F)cc2)c2ccccc21)N1CCCC1,"inconclusive: 17.8 µM [inhibitor, partial curve]"
14,O=C(Nc1ccccc1C(F)(F)F)C1CCN(c2nnc(-n3cccc3)s2)CC1,"inconclusive: 22.4 µM [inhibitor, single point]"
15,Cc1[nH]nc(SCC(=O)N2CCCCC2)c1[N+](=O)[O-],"inconclusive: 35.5 µM [inhibitor, single point]"
16,CCOC(=O)C(NC(=O)CC)(Nc1ccc(S(=O)(=O)Nc2ncccn2)cc1)C(F)(F)F (stereo unspecified),"inconclusive: 14.1 µM [inhibitor, partial curve]"
17,COc1ccc(/C=N/Nc2cc(=O)n(C)c(=O)n2C)cc1OC,"inconclusive: 35.5 µM [inhibitor, single point]"
18,Cc1[nH]c2ccc(C(=O)NCC(C)(C)N3CCOCC3)cc2c1C,inactive
19,COc1ccc(CNC(=O)C(c2ccc(C)o2)N(C(=O)c2csnn2)c2ccc(C(C)C)cc2)cc1 (stereo unspecified),inactive
20,Cc1ccc(-n2c(=S)[nH]c3c(oc4ccccc43)c2=O)cc1C,inactive
21,CCOCCn1c(=NC(=O)c2ccc3c(c2)OCCO3)sc2cc(OCC)ccc21,"inconclusive: 17.8 µM [inhibitor, single point]"
22,COc1ccc(-c2coc3cc(OC)cc(O)c3c2=O)cc1,inactive
23,COc1ccc(C2/C(=C(/O)c3ccccc3)C(=O)C(=O)N2CO)cc1 (stereo unspecified),"inconclusive: 31.6 µM [inhibitor, partial curve]"
